Publication PMC4336329 (PLoS ONE, 2015)
Out of some 310,000 compounds screened, about 14,000 (4.5%) showed an effect of 50% or more. Effects have a minus sign here. This is one part of the list.

biological target: human ether-à-go-go-related gene (hERG) potassium channel (human, UniProt Q12809); experiment: primary screen, population patch clamp on CHO cells stably expressing hERG
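Also: peak tail current of the secondary pulse compared with the same well before compound.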

Chain of human ether-à-go-go-related gene (hERG) potassium channel (Q12809 whole entry, looked up): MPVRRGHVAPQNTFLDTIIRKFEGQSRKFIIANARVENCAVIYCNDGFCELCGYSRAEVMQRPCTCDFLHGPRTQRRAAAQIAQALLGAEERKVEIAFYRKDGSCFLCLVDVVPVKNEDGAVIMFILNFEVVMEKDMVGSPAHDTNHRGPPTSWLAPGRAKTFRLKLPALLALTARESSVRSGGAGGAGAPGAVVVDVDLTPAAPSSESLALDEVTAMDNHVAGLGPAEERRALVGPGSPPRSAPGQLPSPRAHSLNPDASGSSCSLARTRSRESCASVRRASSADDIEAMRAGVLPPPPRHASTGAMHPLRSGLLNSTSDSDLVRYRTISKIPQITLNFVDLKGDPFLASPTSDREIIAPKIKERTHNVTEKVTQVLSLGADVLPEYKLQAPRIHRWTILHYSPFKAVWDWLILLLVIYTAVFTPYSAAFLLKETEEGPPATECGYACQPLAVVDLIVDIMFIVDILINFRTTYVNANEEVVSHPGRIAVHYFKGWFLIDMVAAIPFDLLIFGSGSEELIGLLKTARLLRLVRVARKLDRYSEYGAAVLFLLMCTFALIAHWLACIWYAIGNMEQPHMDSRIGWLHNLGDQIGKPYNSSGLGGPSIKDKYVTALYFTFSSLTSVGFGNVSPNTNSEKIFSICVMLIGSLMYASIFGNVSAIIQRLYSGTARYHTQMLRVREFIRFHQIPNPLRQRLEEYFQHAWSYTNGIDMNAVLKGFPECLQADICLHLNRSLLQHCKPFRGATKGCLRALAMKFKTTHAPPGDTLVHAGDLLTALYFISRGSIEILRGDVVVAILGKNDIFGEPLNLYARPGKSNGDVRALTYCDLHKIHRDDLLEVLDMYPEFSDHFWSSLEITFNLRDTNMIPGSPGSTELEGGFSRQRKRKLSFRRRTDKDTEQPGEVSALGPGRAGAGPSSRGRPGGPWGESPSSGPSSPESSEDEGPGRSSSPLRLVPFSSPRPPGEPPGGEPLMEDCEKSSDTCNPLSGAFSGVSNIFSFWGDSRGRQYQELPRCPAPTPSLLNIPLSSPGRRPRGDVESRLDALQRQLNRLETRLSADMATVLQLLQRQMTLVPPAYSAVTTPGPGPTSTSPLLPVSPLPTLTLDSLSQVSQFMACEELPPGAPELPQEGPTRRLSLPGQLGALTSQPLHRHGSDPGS

| Compound | hERG current change (%, negative = inhibition) at 10uM |
| --- | --- |
| c1cncc(C2OCC3(CO2)COC(c2cccnc2)OC3)c1 (stereo not shown) | 17.9% |
| COc1ccccc1Nc1nc(Cl)nc(NC(C)(C)C)n1 | -22.8% |
| CC(C)CCn1c(=O)c2ccccc2n2c(CCC(=O)NCC3CCCO3)nnc12 (stereo not shown) | -1.79% |
| Cc1cc(C)c(C(=O)OCc2csc(CC(=O)Nc3ccccc3C)n2)c(C)c1 | -24.1% |
| COc1ccccc1C1CC(=O)n2c(nc(-c3ccccc3)c2-c2ccccc2)S1 (stereo not shown) | 4.8% |
| CN(C(=O)c1ccco1)c1nc2c(s1)CCCC2 | -8.65% |
| CS(=O)(=O)c1ccc(Sc2nc3ccccc3s2)c([N+](=O)[O-])c1 | 4.81% |
| Cc1cc(NC(=O)c2noc3c2CCCC3)nn1Cc1ccc(Cl)cc1 | 6.42% |
| O=C(NCC(c1ccco1)N1CCc2ccccc2C1)c1ccccc1Br (stereo not shown) | -37.5% |
| CC(C)[C@H](NC(=O)c1cccc(S(=O)(=O)N2CCCC2)c1)c1nc2ccccc2[nH]1 | 9.05% |
| CCOC(=O)c1c(NC(=S)NC(=O)c2cnn(CC)c2)sc2c1CCC(C)C2 (stereo not shown) | 6.11% |
| CCNC(=O)CSc1nc2ccccc2c(=O)n1-c1cc(OC)ccc1OC | 3.82% |
| Cc1sc(NC(=O)CSC2=NCCS2)nc1-c1ccccc1 | 6.49% |
| CCOC(=O)/C=C1\SCC(=O)N1CC(=O)NC1CCCCC1 | -3.71% |
| O=S1(=O)CCOC[C@H](Cc2ccccc2)N1Cc1cccc(Cl)c1 | -8.55% |
| CN(CC(=O)Nc1cccc(F)c1)C(=O)CCCc1c[nH]c2ccccc12 | -27.1% |
| COc1cccc(COC(=O)C2CC(=O)N(Cc3ccc(C)cc3)C2)c1OC (stereo not shown) | -28.7% |
| Cc1nn(Cc2ccccc2Cl)c(C)c1C(=O)OCC(=O)NC1CCS(=O)(=O)C1 (stereo not shown) | 6.13% |
| Cn1c(-c2cc(Cl)ccc2O)nc2c1c(=O)[nH]c(=O)n2Cc1ccccc1 | 12.8% |
| CCN(CC)S(=O)(=O)c1ccc(/C=C/C(=O)Nc2ccc(N3CCOCC3)cc2)cc1 | 1.16% |
| CC(C)CNC(=O)c1cc([N+](=O)[O-])ccc1N1CCCCC1 | -10.6% |
| CC(C)OP(=O)(OC(C)C)C(Nc1ccccc1)c1ccc2c(c1)OCO2 (stereo not shown) | -19.8% |

| Compound | hERG current change (%, negative = inhibition) at 10uM |
| --- | --- |
| CCOc1cc(C(=S)N2CCOCC2)ccc1OC(=O)c1ccc(C)cc1 | 6.19% |
| Cc1ccc(-n2c(CNc3ccc(F)cc3)nnc2SCC(=O)N2CCOCC2)cc1 | -35.4% |
| Fc1ccccc1/C=N/Nc1cc(N2CCCCC2)ncn1 | 6% |
| FC(F)(F)c1nc(Sc2ncccc2C(F)(F)F)n[nH]1 | 15.2% |
| O=C(c1ccc2nc(Cc3ccccc3F)oc2c1)N1CC[C@H](O)C1 | 13.7% |
| CC12CCCCC1NS(=O)(=O)OC2 (stereo not shown) | 14.8% |
| CCOC(=O)c1ccc(S(=O)(=O)NCCN(CC)CC)cc1.Cl | 11.4% |
| CCN1CCCC1CN(Cc1cc2ccc(C)cc2[nH]c1=O)C(=S)Nc1ccc(OC)cc1OC (stereo not shown) | -74.5% |
| O=C(CN1C(=O)S/C(=C\c2cccc(Cl)c2)C1=O)NCCCn1ccnc1 | -51.2% |
| Cc1nc(SCc2ccc(Cl)c(Cl)c2)n[nH]1 | 13.6% |
| O=C(Nc1ccc(CN2CCCCC2)cc1)c1ccc2c(c1)OCO2 | -64.3% |
| O=C(CSc1cn(CC(=O)N2CCCC2)c2ccccc12)NCC1CCCO1 (stereo not shown) | 9.72% |
| COc1ccc(C(=O)NC(=S)Nc2ccc(N3CCOCC3)c(Cl)c2)cc1[N+](=O)[O-] | 2.76% |
| CCOC(=O)c1c(NC(=S)Nc2ccccc2)sc2c1CCN(CC)C2 | -81.5% |
| Cc1sc2nc(C(C)C)nc(SCC(=O)NCc3ccco3)c2c1C | 2.82% |
| C=CCSC1=N/C(=C\c2ccc(C)o2)C(=O)S1 | 12.8% |
| CCOc1ccccc1N1C(=O)CC(=O)NC1=O | 17.3% |
| Cc1ccc(OCCCC(=O)N2CCOCC2)c(C)c1 | 2.96% |
| Cc1ccc(C(C)C)c(OCC(=O)Nc2ccc(N3CCN(S(C)(=O)=O)CC3)cc2)c1 | 1.13% |
| Cc1nc(CS(=O)(=O)c2ccc(Cl)cc2)cc(Sc2ccc(Cl)cc2)n1 | -10.4% |
| Nc1nc(-c2ccccc2)cc(-c2ccccc2)n1 | 15.4% |
| CC(C)(C)OC(=O)N1CCC[C@H]1C(=O)N/N=C/c1ccc2ncccc2c1 | 5.87% |

| Compound | hERG current change (%, negative = inhibition) at 10uM |
| --- | --- |
| Cc1ccccc1Nc1nc(N)nc(CSc2nnc3ccccn23)n1 | 6.08% |
| Cc1nc2ccccn2c1P(=O)(N1CCCCC1)N1CCCCC1 | -6.79% |
| CC(Cn1cncn1)C(=O)N1CCN(S(=O)(=O)c2ccccc2)CC1 (stereo not shown) | 20.5% |
| CC(=O)Nc1cc(NC(C)=O)cc(C(=O)OCC(=O)Nc2ccc(S(=O)(=O)NC3=NCCCCC3)cc2)c1 | 2.8% |
| Cc1onc(-c2ccccc2)c1C(=O)NCCc1ccncc1 | 9.21% |
| O=C1c2ccccc2C(=O)N1OCc1c(F)cccc1Cl | 3.25% |
| CCOC(=O)c1ccc2nc(NC(C)=O)sc2c1 | 12.6% |
| CC1(C)CC(=O)C(N=Nc2ccc(Cl)cc2)=C(O)C1 | 5.31% |
| O=C(N1CCc2[nH]c3ccccc3c2C1)C(F)(F)F | 15.7% |
| CCc1ccccc1NC(=O)CSc1nnc([C@@H](NC(=O)OC(C)(C)C)C(C)C)o1 | -17.1% |
| Cc1cc(C(=O)N(C)Cc2c(F)cccc2Cl)c2ccccc2n1 | -34.4% |
| COc1ccc2oc(C(=O)OCC(=O)N(C)CC(=O)Nc3ccc(F)cc3)c(C)c2c1 | -18.2% |
| Nn1c(SCC(=O)Nc2ccc3c(c2)OCCO3)nnc(CCC(=O)O)c1=O | 15.6% |
| O=C(NC(C(=O)N/N=C/c1ccccc1)c1n[nH]c(=O)c2ccccc12)c1ccccc1 (stereo not shown) | 1.35% |
| O=C(Nc1ccccc1)c1c(F)c(F)c(F)c(F)c1F | -2.93% |
| COc1cccc(NS(=O)(=O)c2c(C)nc3sccn3c2=O)c1 | -0.632% |
| Cc1cc(-c2n[nH]c(=S)n2/N=C/c2ccccc2[N+](=O)[O-])n[nH]1 | 10.2% |
| Cc1c(C(=O)OCC(=O)N(C)Cc2ccccc2)oc2ccccc12 | -29.4% |
| O=C(NCCN1CCOCC1)c1cc(-c2ccc(F)cc2)nc2ccccc12 | -34.2% |
| COc1cccc(/C=c2\s/c(=C\C(=O)C(C)(C)C)[nH]c2=O)c1 | 6.02% |
| CC1CCN(C(=O)c2scc3c2OCCO3)CC1 | -9.26% |
| C=CCCCN(Cc1ccccc1)S(=O)(=O)c1ccccc1Br | 11.3% |

| Compound | hERG current change (%, negative = inhibition) at 10uM |
| --- | --- |
| Cc1ccc(C)c(NC(=O)C(=O)NCc2ccccn2)c1 | -11.2% |
| O=C(CSCCO)Nc1ccc(C2CCCCC2)cc1 | -11.9% |
| CC(NC(=O)CN1C(=O)NC2(CCCC2)C1=O)c1ccc2ccccc2c1 (stereo not shown) | -0.803% |
| Cc1ccc2nc(SCC(=O)Nc3ccc(C)c([N+](=O)[O-])c3)[nH]c2c1 | 9.81% |
| N#CC12CCCCC1CC1CCCCC1(C#N)N2Cc1cccnc1 (stereo not shown) | -35.5% |
| Cc1ccccc1NC(=O)c1nn(-c2ccc(F)c(F)c2)ccc1=O | 5.07% |
| CCn1c(SCC(=O)Nc2sc3c(c2C#N)CCCC3)nnc1-c1ccncc1 | -63.5% |
| CCN(CC)C(=O)C1CCN(c2ncnc3c2cnn3-c2ccc(C)cc2C)CC1 | -6.83% |
| Cc1cc(Cl)c(S(=O)(=O)N2CC(C)OC(C)C2)cc1OCC(N)=O (stereo not shown) | -19.8% |
| Cc1cc(NC(=O)CSc2ccc3nnc(-c4cccc(F)c4)n3n2)no1 | -14.3% |
| CCC(CC)COC(=O)C(C#N)c1nc2ccccc2nc1N1CCN(CC)CC1 (stereo not shown) | -72.7% |
| COc1ccc(OC)c(NC(=O)c2ccc3c(=O)n(CCc4ccccc4)c(=S)[nH]c3c2)c1 | 8.23% |
| CC1CCC(C(C)C)C2=C1C(C#N)(C#N)C(C#N)(C#N)C(c1ccccc1)N2 (stereo not shown) | 6% |
| N=C1/C(=C/c2cccn2-c2cccc([N+](=O)[O-])c2)C(=O)N=C2SC=CN12 | 8.83% |
| O=C(CNC(=O)c1cccs1)OCC(=O)c1ccc2ccccc2c1 | 14.2% |
| COc1ccc(C(C[N+](=O)[O-])C2(c3ccc(OC)c(OC)c3)C(=O)c3ccccc3C2=O)cc1 (stereo not shown) | -1.26% |
| COc1ccccc1OCCNC(=O)c1ccc2c(c1)CCC2 | -5.96% |
| O=C(CN1CCN(c2nc(-c3ccccc3)cs2)CC1)NCc1ccc2c(c1)OCO2 | -5.24% |
| Cn1nccc1NS(=O)(=O)c1ccc(F)cc1 | 16.5% |
| CCCCNC(=O)N(C)c1nncnc1C(=O)NC | 7.3% |
| O=C(NCCCCc1ccccc1)C1CC(c2cccc(F)c2)=NO1 (stereo not shown) | -28.1% |
| Cc1cnc(C(=O)OC(C)C(=O)c2c(C)[nH]c3ccccc23)cn1 (stereo not shown) | -19.9% |
